This is one part of the list. At the low end of the ranking the order means little.
The sequences below were run against SIX1-Q177R homeodomain (UniProt Q15475) (assay: universal protein binding microarray). Settings: Universal all-10-mer PBM (8x60K, AMADID 030236), 300 nM GST-tagged protein, Alexa Fluor 488 anti-GST; buffer, salt, pH and temperature not stated; high values mean tight binding; most listed sequences are background and not binding sites; double strand, one strand shown.
With GACACTCA the binding signal was 0.422 E-score. With CCGTTATC the binding signal was -0.133 E-score. With GGAAAGTA the binding signal was -0.212 E-score. Work on CCTCACGA yielded a binding signal of -0.0243 E-score. ACAGTAGT showed a binding signal of 0.0989 E-score. AAACAAGC was tested, and the binding signal was -0.117 E-score. CACGCAAC showed a binding signal of 0.227 E-score. Sequence ATTTCCTG has a binding signal of -0.23 E-score. CCACCAAG gave a binding signal of 0.0904 E-score. With TCTGATAA the binding signal was -0.114 E-score. In the case of ATTCAATA, the binding signal is reported as -0.0774 E-score. For ATGGACAT, the binding signal was -0.167 E-score. In the case of AGAGACCC, the binding signal is reported as 0.144 E-score. In the case of ACGCTCGG, the binding signal is reported as -0.0631 E-score. CACTTCGG showed a binding signal of 0.11 E-score. With GTCCAGCA the binding signal was -0.171 E-score. Work on GACCCGCA yielded a binding signal of 0.000305 E-score. AGCCCTGC gave a binding signal of -0.0829 E-score. CAGAAGCA showed a binding signal of -0.174 E-score. CGCTCATC gave a binding signal of -0.217 E-score. For CCCTCCTC, the binding signal was 0.0457 E-score. Work on AGCCCAAT yielded a binding signal of -0.204 E-score. ATAAGACC showed a binding signal of -0.16 E-score. Sequence ATGCAAAG has a binding signal of -0.161 E-score. CGATCCCA was tested, and the binding signal was 0.146 E-score. GTAGAAAC was tested, and the binding signal was -0.0645 E-score. In the case of AACAGGAG, the binding signal is reported as 0.131 E-score. In the case of TACCTACA, the binding signal is reported as 0.312 E-score. TCCAAGCA showed a binding signal of -0.172 E-score. For ATCCGCTG, the binding signal was 0.0335 E-score. Sequence CCCGGGAA has a binding signal of 0.0431 E-score. Sequence AGTCCTAG has a binding signal of 0.0211 E-score. For ATTATCAA, the binding signal was 0.131 E-score. AAGTATCG showed a binding signal of 0.103 E-score. Work on CGTCATAG yielded a binding signal of -0.258 E-score. Work on AGTGTCAA yielded a binding signal of 0.424 E-score. GGGAGGAC showed a binding signal of -0.113 E-score. For AAGTCCGC, the binding signal was -0.287 E-score. ATCGGATA showed a binding signal of 0.17 E-score. Work on CCTGAGTC yielded a binding signal of 0.0217 E-score. For AATCCACT, the binding signal was 0.122 E-score. AGTACTGA showed a binding signal of -0.00458 E-score. Sequence GAACGCAC has a binding signal of 0.0154 E-score. For ACGCAGGG, the binding signal was 0.164 E-score. In the case of CCACCAAA, the binding signal is reported as -0.0128 E-score. With CAATAGGC the binding signal was -0.0592 E-score. In the case of CCCCATAC, the binding signal is reported as 0.057 E-score. Sequence AATAATCC has a binding signal of -0.0226 E-score. Sequence AGTAGACC has a binding signal of -0.233 E-score. AGGGCCCG showed a binding signal of 0.00179 E-score. Work on GGATTCAC yielded a binding signal of 0.0237 E-score. Sequence AGTGCACC has a binding signal of 0.28 E-score. For CCAGATAC, the binding signal was 0.0953 E-score. For ACATACAC, the binding signal was 0.421 E-score. In the case of AGGTAGAA, the binding signal is reported as -0.0367 E-score. For AACTCAGC, the binding signal was -0.244 E-score. With AAAGTGCG the binding signal was -0.125 E-score. With AGAGTTAA the binding signal was 0.0409 E-score. GCACCGAC showed a binding signal of 0.225 E-score. CACGGATA showed a binding signal of 0.178 E-score. AGCCAACA gave a binding signal of 0.0287 E-score. Work on AGAATTCC yielded a binding signal of -0.176 E-score. AAGGGTGT was tested, and the binding signal was 0.464 E-score. Work on AGGAAATC yielded a binding signal of -0.17 E-score. CTACCTCC gave a binding signal of -0.0719 E-score. Work on AGTAAGTG yielded a binding signal of 0.12 E-score. For CTAGGGAC, the binding signal was 0.0414 E-score. For CACGCTCC, the binding signal was 0.14 E-score. In the case of AGCACGAT, the binding signal is reported as 0.0126 E-score. For GCGCCCAC, the binding signal was -0.0252 E-score. ACTGGTCA gave a binding signal of -0.092 E-score. For GACGAGTC, the binding signal was -0.0733 E-score. Work on ATGCCAAC yielded a binding signal of -0.185 E-score. GGTTCCTA gave a binding signal of 0.0994 E-score. Work on CTCAGCAC yielded a binding signal of 0.185 E-score. CCCACGTC was tested, and the binding signal was 0.0689 E-score. For ACACTCGC, the binding signal was 0.385 E-score. With AGTTCAGG the binding signal was -0.0779 E-score. Sequence AGGTCCGC has a binding signal of -0.169 E-score. Sequence TCTTCACA has a binding signal of -0.0429 E-score. With ACCCCACG the binding signal was 0.267 E-score. ATAATTGG showed a binding signal of -0.169 E-score. Sequence TAAGCAGA has a binding signal of -0.224 E-score. TACCGAAA was tested, and the binding signal was -0.235 E-score. With CCTAAAGG the binding signal was -0.0597 E-score. For AGTATTAC, the binding signal was -0.0572 E-score. GGCTAGTA showed a binding signal of 0.018 E-score. Work on AGTCGCAG yielded a binding signal of -0.191 E-score. For AGACCCAT, the binding signal was -0.214 E-score. In the case of GGCCTAGA, the binding signal is reported as -0.173 E-score. With GAGATAGC the binding signal was -0.12 E-score. Work on TGGCGAAA yielded a binding signal of -0.203 E-score. For CTTAAGGA, the binding signal was -0.203 E-score. Sequence GTTTGAGA has a binding signal of -0.236 E-score.

From PMC10668032
